Measurements reported in patent publication US20160304617A1 (ASANA BIOSCIENCES, published 2016).

Target: T1, Human 5T4 full length (human, UniProt Q13641 32-420)
T1 sequence (looked up): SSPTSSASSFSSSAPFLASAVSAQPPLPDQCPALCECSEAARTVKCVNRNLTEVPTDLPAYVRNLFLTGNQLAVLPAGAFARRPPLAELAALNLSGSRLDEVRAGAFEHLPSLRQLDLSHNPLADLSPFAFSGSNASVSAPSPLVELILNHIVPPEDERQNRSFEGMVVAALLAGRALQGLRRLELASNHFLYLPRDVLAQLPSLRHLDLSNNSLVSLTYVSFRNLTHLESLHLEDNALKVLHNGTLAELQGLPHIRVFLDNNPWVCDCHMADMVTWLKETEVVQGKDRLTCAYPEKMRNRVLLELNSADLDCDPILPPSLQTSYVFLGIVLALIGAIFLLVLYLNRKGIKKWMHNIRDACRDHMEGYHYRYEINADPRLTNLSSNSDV
Test: cell-based or functional assay

B1: anti-5T4 hu-scFv-Fc-HPRN (Fc fusion)
chain: EVQLVESGGGLVQPGGSLRLSCKASGYSFTGYYMHWVRQAPGKGLEWVSRINPNNGVTLYNQKFKDRFTISRDNSKNTLYLQMNSLRAEDTAVYYCARSTMITNYVMDYWGQGTLVTVSSGGGGSGGGGSGGGGSGGGGSGGGGSGGGGSDIQMTQSPSSLSASVGDRVTITCKASQSVSNDVAWYQQKPGKAPKLLIYYTSSRYAGVPSRFSGSGSGTDFTLTISSLQPEDFATYYCQQDYNSPPTFGGGTKLEIKASTC[human IgG1 Fc with changes not listed]GCSGGPGGGSKESRAKKFQRQHMDSDSSPSSSSTYCNLMMCCRNMTQGRCKPVNTFVHEPLVDVQNVCFQEKVTCKNGQGNCYKSNSSMHITDCRLTNGSRYPNCAYRTSPKERHIIVACGGSPYVPVHFDASVEDST
IC50 of cytotoxicity, A431 cells: 38 µg/mL | IC50 of cytotoxicity, A431 cells (using tetramer MW): 135 nM | IC50 of cytotoxicity, SKOV3 cells: 27 µg/mL | IC50 of cytotoxicity, SKOV3 cells (using tetramer MW): 92 nM
